Assay results taken from patent publication US20210170043A1, “DC-SIGN ANTIBODY CONJUGATES COMPRISING STING AGONISTS” (NOVARTIS AG, priority 2018, published 2021).

T1: human L-SIGN (Homo sapiens, UniProt Q9H2X3)
T1 construct: expressed in transfected cells; host or cells: K562, retroviral transduction
T1 sequence (Q9H2X3 1-399): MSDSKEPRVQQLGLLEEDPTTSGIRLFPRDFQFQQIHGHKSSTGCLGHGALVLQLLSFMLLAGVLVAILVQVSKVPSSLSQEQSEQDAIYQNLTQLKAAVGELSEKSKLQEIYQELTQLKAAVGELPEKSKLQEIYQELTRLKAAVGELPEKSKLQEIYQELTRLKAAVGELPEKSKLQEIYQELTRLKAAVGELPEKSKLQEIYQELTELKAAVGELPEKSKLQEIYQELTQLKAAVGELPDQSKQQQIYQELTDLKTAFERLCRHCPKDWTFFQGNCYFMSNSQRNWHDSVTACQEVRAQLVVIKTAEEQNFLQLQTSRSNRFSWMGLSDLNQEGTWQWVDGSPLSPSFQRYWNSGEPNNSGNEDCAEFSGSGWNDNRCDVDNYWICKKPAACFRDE

B1: 906C18: anti-DC-SIGN monoclonal antibody from hybridoma of Ablexis Alivamab mice (antibody)
heavy: EVQLVESGGGLVQPGGSLRLSCAASGFTFNNYWMNWVRQAPGKGLEWVANIRQDGSEKYYVDSVKGRFTISRDNAKNSLFLQMNSLRAEDTAVYYCARERAYCSTTSCPDYSNDYWGQGTLVTVSSASTKGPSVFPLAPSSKSTSGGTAALGCLVKDYFPCPVTVSWNSGALTSGVHTFPAVLQSSGLYSLSSVVTVPSSSLGTQTYICNVNHKPSNTKVDKRVEPKSCDKTHTCPPCPAPELLGGPSVFLFPPKPKDTLMISRTPEVTCVVVAVSHEDPEVKFNWYVDGVEVHNAKTKPREEQYNSTYRVVSVLTVLHQDWLNGKEYKCKVSNKALAAPIEKTISKAKGQPREPQVYTLPPSREEMTKNQVSLTCLVKGFYPCDIAVEWESNGQPENNYKTTPPVLDSDGSFFLYSKLTVDKSRWQQGNVFSCSVMHEALHNHYTQKSLSLSPGK
light: EIVMTQSPATLSVSPGERATLSCRASQTINNNLAWFQQKPGQTPRLLIYGASTGATGIPARFSGSGSGTEFTLTISSLQSEDFAVYYCQQYNNWPRGLTFGGGTKVEIKRTVAAPSVFIFPPSDEQLKSGTASVVCLLNNFYPREAKVQWKVDNALQSGNSQESVTEQDSKDSTYSLSSTLTLSKADYEKHKVYACEVTHQGLSSPVTKSFNRGEC
B2: 550 E03 Parental: anti-DC-SIGN monoclonal antibody from hybridoma of Ablexis Alivamab mice (antibody)
heavy: QVTLRESGPALVKPTQTLTLTCTFSGFSLSTSGMSVSWIRQPPGKALEWLALIDWDDDKYYSTSLKTRLTISKDTSKNQVVLTMTNMDPVDTATYYCARMALRHAFDAWGQGTMVTVSSASTKGPSVFPLAPSSKSTSGGTAALGCLVKDYFPCPVTVSWNSGALTSGVHTFPAVLQSSGLYSLSSVVTVPSSSLGTQTYICNVNHKPSNTKVDKRVEPKSCDKTHTCPPCPAPELLGGPSVFLFPPKPKDTLMISRTPEVTCVVVAVSHEDPEVKFNWYVDGVEVHNAKTKPREEQYNSTYRVVSVLTVLHQDWLNGKEYKCKVSNKALAAPIEKTISKAKGQPREPQVYTLPPSREEMTKNQVSLTCLVKGFYPCDIAVEWESNGQPENNYKTTPPVLDSDGSFFLYSKLTVDKSRWQQGNVFSCSVMHEALHNHYTQKSLSLSPGK
light: QSVLTQPPSVSGAPGQRVTISCTGSSSNIGAGYDVHWYQQLPGTAPKLLIYVNSNRPSGVPDRFSGSKSGTSASLAITGLQAEDEADYYCQSYDSSLSGWVFGGGTKLTVLGQPKAAPSVTLFPPSSEELQANKATLVCLISDFYPGAVTVAWKADSSPVKAGVETTTPSKQSNNKYAASSYLSLTPEQWKSHRSYSCQVTHEGSTVEKTVAPTECS

Target: T1, human L-SIGN
Assay: FACS binding to K562 cells expressing human L-SIGN (selectivity)
Conditions: FACS MFI
Description: The affinity of various antibodies and ADCs to DC-SIGN and its species orthologues was determined using FACS. Purified IgGs were titrated to determine EC50 values for binding to cell surface expressed DC-SIGN.
For this purpose, human DC-SIGN expressing or cynomolgus monkey DC-SIGN expressing stable CHO cell lines or K562 expressing DC-SIGN or K562 expressing L-SIGN cell lines were checked for density and viability using VICELL (Beckman Coulter), and washed once with 4° C. PBS. Cells were stained with DAPI (0.5 ug/mL) diluted in PBS for 30 min on ice. Cells were diluted into 4° C. FACS buffer (PBS, 10 mM EDTA, 2% FBS). 125 μl of cells were seeded (10,000 cells/well) into 96-well v-bottom plates (Nunc cat#442587) and centrifuged for 4 min at 1500 rpm at 4° C. Supernatant was removed. […] After the final wash, cells were resuspended in Fixative Buffer (Biolegend, 420801) and 90 μl of FACS buffer followed by readout on the flow cytometry machine (BD LSRFortessa Cell Analyzer; Cat #647177). Geometric Mean fluorescence intensity (MFI) of live, single cells was calculated in Flowjo 10.4.2 and exported into Graphpad Prism7 for EC50 determination.
Selectivity was assessed by measuring apparent binding affinities to isogenic cell pairs engineered to overexpress DC-SIGN as well as cell lines expressing DC-SIGN paralog L-SIGN.

| Molecule | human L-SIGN K562 EC50 [µg/mL] |
| --- | --- |
| B1 | >10 |
| B2 | >10 |
